Reference: PubChem BioAssay AID1508623 (National Center for Advancing Translational Sciences (NCATS), 2021)
Out of some 48,000 compounds screened, about 450 (0.94%) were called active. Roughly 19% stayed inconclusive and do not appear here. Calls follow the shape of the dose curve; as a rule, active = well fitted inhibition curve with a large enough effect; inconclusive = small, poorly fitted or top-dose-only effect; inactive = no such curve, though single readings can be large or run the other way. The list shows a part of the results.

Test: Primary qHTS for Identification of Small Molecule Inhibitors of Huntingtin Promoter Activity; also: nearly all actives have a fitted effect of over 50% in size
Details: HEK293 HTT promoter firefly luciferase reporter (activity 0% = vehicle and -100% = no light), 24 h; series mostly up to 57.5 µM; activity change, negative = inhibition: at the top concentration
Outline: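 HEK293 Fluc reporter, 2,500 cells/well, 24 h pre-culture; cpds up to 57.5 uM final, 24 h 37 degrees C; Dual-Glo, 10 min RT; normalized vehicle = 0%, zero RLU = -100%.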

Activity change, negative = inhibition, inactive:
Cc1c(NC(=O)Nc2ccc(F)c(Cl)c2)c(=O)n(-c2ccccc2)n1C -12.5%
Cc1ccc(-c2nonc2NC(=O)c2ccco2)cc1C -14.9%
Cc1ccc(-c2nc3ccccc3[nH]2)cc1NC(=O)COc1cccc(C)c1C -21.3%
Cc1ccc(CNC(=O)c2ccc3c(c2)N(Cc2cccc(C)c2)C(=O)CS3)cc1 -27.3%
Cc1oc(C)c2c(=O)cc(-c3ccc4c(c3)OCO4)cc(OC(=O)c3ccc(Cl)cc3)c12 -9.23%
Cc1cccc(-c2[nH]ncc2-c2ccc3ncccc3n2)n1 -8.34%
NC(CSCC(=O)O)C(=O)O (stereo not given) 8.93%
CCC(Sc1nc2ccccc2c2nc(CCc3c(C)n[nH]c3C)nn12)C(=O)Nc1ccccc1F (stereo not given) -24.6%
COc1ccccc1Cn1c(CNS(=O)(=O)c2cccc([N+](=O)[O-])c2)nc2cccnc21 -17.7%
Cc1ccccc1C(=O)Nc1ccc(C(=O)N2CCCC(N(C)C)c3ccccc32)cc1 (stereo not given) -23.3%
COc1ccc(C)cc1NC(=O)CCn1nc(C)cc1C 8.35%
O=C(C=CC#Cc1cccc(NS(=O)(=O)c2ccccc2)c1)NO -38.1%
CCN(CC)C(=O)C1=C(C)Nc2nc3ccccc3n2C1c1cccc(Cl)c1 (stereo not given) -2.82%
Cc1ccc(NC(=O)Cn2c(=O)c(CNc3ccccc3)cc3cc4c(cc32)OCCO4)cc1 -33.7%
COC(=O)c1ccc(NC(=O)CSc2n[nH]c(CC(C)C)n2)cc1 -26.4%
COc1ccc(CNC(=O)c2cc3cccc(OC)c3oc2=O)cc1 -10.3%
CCn1cc(C(=O)N2CCN(c3ccc(OC)cc3)CC2)c(=O)c2cc(S(=O)(=O)N(C)C3CCCCC3)ccc21 -7.23%
COc1cccc(CNC(=O)c2nn(C)c3c2CS(=O)(=O)c2ccccc2-3)c1 -17%
CC(=O)O[C@H]1CC[C@@]2(C)C(=CC[C@@H]3[C@@H]2CC[C@]2(C)C(C(C)=O)=CC[C@@H]32)C1 -4.19%
COc1ccc(NC(=O)CSC2=Nc3ccccc3C3=NC(CCC(=O)NCCc4ccccc4)C(=O)N23)c(OC)c1 (stereo not given) -33.4%
O=C(NCc1ccco1)c1ccc2c(c1)N(Cc1ccccc1F)C(=O)c1ccccc1S2=O (stereo not given) -24.2%
Cc1cccc(OC(=O)c2cc(-c3ccc(Cl)cc3)on2)c1C -5.02%
CC(C)CN(CCCNC(=O)c1cn(C)c2ccc(S(=O)(=O)N(C)C3CCCCC3)cc2c1=O)CC(C)C 88.8% [at 11.5 µM]
COc1cccc(NC(=O)C(CCSC)NC(=O)C2CCC(C)CC2)c1 (stereo not given) -9.35%
CC(C)[C@@H]1CC[C@@H](C)CC1=O 8.97%
CC(=O)c1cc2ccccc2s1 8.82%
CCOc1ccc(C2=CC(c3cc(Br)ccc3F)n3ncnc3N2)cc1Cl (stereo not given) -11.3%
Cc1nn(CC(=O)Nc2cccc(C(F)(F)F)c2)c(=O)c2nn(-c3ccccc3)c(C)c12 -5.25%
CCOc1ccc(-n2c(=O)c3c(C)c(C)sc3n(Cc3cc(=O)n4cc(Cl)ccc4n3)c2=O)cc1 -22.2%
CN(C(=O)CSc1nc2ccccc2n1Cc1cccc(C(F)(F)F)c1)c1ccccc1 0%
O=C(COC(=O)c1cc(-c2ccccc2)nc2c(Cl)cccc12)c1ccc(F)cc1 -19.6%
Cc1ccc(CCNC(=O)c2cc(-c3ccc(Cl)cc3)n[nH]2)cc1 3.66%
Cc1ccc(Nc2cc(C(=O)NCc3cccs3)c3ccccc3n2)c(C)c1 6.44%
Cc1ccc(NC(=O)c2ccc3[nH]c(C)cc(=O)c3c2)c(C)c1 -10.2%
Cc1ccc(NC(=O)Cc2coc3c(C)c(C)ccc23)cc1Cl -15.8%
COc1ccccc1CN1CCN(C2CCN(C(=O)NC(C)C)CC2)C(=O)C1=O 17.1%
COc1cc2ccccc2cc1C(=O)Nc1ccc2oc(-c3ccccc3)nc2c1 6.2%
CCc1ccc2c(c1)-c1ccccc1S(=O)(=O)N2CC(=O)N1CCC(C)CC1 16%
Cc1ccccc1CNC(=O)CCC(=O)N1CC2CCCN2c2ccccc21 (stereo not given) -26.2%
CC1CCN(S(=O)(=O)c2ccc3c(c2)N(CC(=O)N2CCN(c4ccccc4)CC2)C(=O)CO3)CC1 -24%
CC(=O)c1ccc(NC(=O)Cn2ncc3c(C)n(Cc4ccc(F)cc4)c(C)c3c2=O)cc1 -8.4%
COc1ccccc1C(=O)Nc1nc2nc(C)c(Cc3ccccc3)c(=O)n2[nH]1 -4%
COc1cccc(Cn2c(CNS(=O)(=O)c3ccc4c(c3)CCCC4)nc3cccnc32)c1 -11.1%
CCN(CC)C(=O)CSc1nc2ccccc2c(=O)n1Cc1ccco1 0%
CC[C@@H]1C(=O)N(C)c2cnc(Nc3ccc(C(=O)NC4CCC(N5CCN(CC6CC6)CC5)CC4)cc3OC)nc2N1C(C)C (stereo not given in full) -2.78%
CCCc1nccn1S(=O)(=O)c1cc(Br)ccc1OC -13.1%
COc1cc2c(C(=O)N(C)c3cc(Cl)ccc3OC)cn(CC(C)C)c(=O)c2cc1OC -28.9%
CCN(C(=O)Cn1c(=O)n(CC2CCC(C(=O)NC)CC2)c(=O)c2sccc21)c1ccccc1 (stereo not given) -2.52%
Cc1nn(CCCC(=O)Nc2cccc(F)c2)c(=O)c2c1sc1ccccc12 -5.66%
COc1ccc(NC(=O)CN2C(=O)CCc3cc(S(=O)(=O)N4CCOCC4)ccc32)cc1Cl -28.4%
O=C(Nc1ccccc1)c1cn(-c2ccccc2)nc1-c1ccccc1 -28.6%
Cc1cccc(-n2c3nc(=O)[nH]c(=O)c-3cc3c(C)nn(-c4ccccc4)c32)c1C -8.31%
COc1ccccc1NC(=O)CSC1=Nc2ccccc2N=C(c2ccc(F)cc2)C1 -4.86%
COC(=O)c1c(NC(=O)c2nc(SCc3cccc(C)c3)ncc2Cl)sc2c1CCCC2 -7.98%
COc1ccc(-n2nnc(-c3nc(-c4cccs4)no3)c2N)cc1OC 9.35%
CC(=O)N1CCCC1c1nc2ccccc2n1Cc1cccc(Cl)c1 (stereo not given) -5.9%
Cc1ccc(-c2noc(-c3ccc(NCc4ccco4)c([N+](=O)[O-])c3)n2)cc1 10.9%
COc1cc(NC(=O)CC(c2ccc(C)cc2)N2Cc3ccccc3C2=O)cc(OC)c1 (stereo not given) -15.2%
CC1=C(c2ccc(F)cc2)S(=O)(=O)NC1=NCc1ccccc1F -22.5%
COc1ccc(-c2nc(C)c(CCNC(=O)C(=O)Nc3ccccc3C#N)s2)cc1OC 0.202%
COc1ccccc1C(=O)Nc1nc2nc(-c3ccccc3)cc(=O)n2[nH]1 -14.1%
CCc1nn2c(=O)cc(COC(=O)c3ccc(NC(=O)c4cccs4)cc3)nc2s1 -9.9%
Cc1ccc(C)c(CNC(=O)C2CCN(c3nc4ccccc4nc3C(F)(F)F)CC2)c1 23.5%
CCOc1ccccc1CNC(=O)Cn1ncn2nc(-c3cccs3)cc2c1=O -10.8%
COc1ccc(Nc2nnc(-c3cc4c(ccc5ccccc54)oc3=O)s2)cc1 16.7%
CCNC(=O)c1ccc2nc(CCc3ccccc3)oc2c1 18.4%
CCCN(C(=O)c1cn(C)c(=O)c2ccccc12)c1ccccc1C -6.27%
CCOc1ccccc1C(=O)N(Cc1cc(OC)c(OC)c(OC)c1)C1CCS(=O)(=O)C1 (stereo not given) -8.3%
O=C(CN1CCSc2ccccc21)NCc1ccccc1F -6.5%
COc1ccc2nc(N(Cc3cccnc3)C(=O)C3COc4ccccc4O3)sc2c1 (stereo not given) 5.86%
CN(C)CC[C@@H](c1ccc(Br)cc1)c1ccccn1 1.02%
CCCOc1ccc(CN(C(=O)c2cc(=O)c3ccc(C)cc3o2)C2CCS(=O)(=O)C2)cc1 (stereo not given) -15.5%
COc1ccc(N2CCN(S(=O)(=O)CCNC(=O)C3CC(=O)N(c4ccccc4)C3)CC2)cc1 (stereo not given) -8.92%
Cc1nc(CC(=O)Nc2cc(Cl)ccc2C)cs1 -3.51%
COc1cccc(C(=O)CC2(O)C(=O)Nc3ccc(Cl)cc32)c1 (stereo not given) -19.3%
COc1cc(C)ccc1OCCSc1nc(-c2cccc(C)c2)nc2cc(=O)[nH]n12 -10.2%
COc1ccc(C)cc1NC(=O)COCc1cc(-c2cccs2)on1 -15.2%
CCOc1ccc(NC(=O)CSc2nc3c(c(=O)[nH]2)CCCC3)cc1 -5.77%
COc1cc(C2c3c(oc4ccc(F)cc4c3=O)C(=O)N2c2nc(C)c(C)s2)cc(OC)c1OC (stereo not given) 2.42%
O=C(CCS(=O)(=O)c1cc(Br)cc2c1N(C(=O)C1CC1)CC2)N1CCN(c2ccc(F)cc2)CC1 -13.5%
CC1(C)[C@H](O[C@H]2O[C@H](C(=O)O)[C@@H](O)[C@H](O)[C@H]2O[C@@H]2O[C@H](C(=O)O)[C@@H](O)[C@H](O)[C@H]2O)CC[C@@]2(C)[C@H]1CC[C@]1(C)[C@H]2C(=O)C=C2[C@H]3C[C@@](C)(C(=O)O)CC[C@]3(C)CC[C@]21C -3.22%
COc1ccc(CCNC(=O)CCCn2c(=O)c3ccccc3n(Cc3ccc(C)cc3)c2=O)cc1OC -4.86%
Cc1ccc2ncc(C(=O)NCCc3ccc(S(N)(=O)=O)cc3)c(=O)n2c1 -0.892%
Cc1ccc(CCNC(=O)c2cc3c(=O)oc4ccccc4c3s2)cc1 -3.74%
Cc1nn2c(C)c(C(=O)N3CCN(c4ccccc4)CC3)cnc2c1-c1ccccc1 -18.9%
COc1ccccc1OCCn1c(COc2cc(C)ccc2C)nc2ccccc21 1.44%
COc1cccc(CNC(=O)CNS(=O)(=O)c2ccc3nc(C)sc3c2)c1 -3.9%
COc1cc(NC(=O)CSc2nc3ccccc3nc2Cc2ccccc2OC)cc(OC)c1 -3.38%
O=C(c1ccc(Cl)cc1)N(Cc1ccco1)Cc1ccco1 -21.9%
COc1cc(OC)cc(C(=O)Nc2ccc3oc(-c4ccccc4C)nc3c2)c1 5.29%
CCC(=O)Nc1ccc(C)cc1-c1nc2ccccc2n(CC(=O)Nc2ccccc2Cl)c1=O -9.62%
COc1ccc(NC(=O)Cn2c(=O)n(CC3CCCO3)c(=O)c3ccccc32)c(OC)c1 (stereo not given) -4.69%
CCN(CC)S(=O)(=O)c1nnc(NC(=O)c2ccccc2Cl)s1 -3.24%
CC(C)CNc1nc(NC(C)(C)C)nc(Oc2ccc(=O)n(-c3ccccc3)n2)n1 -27.9%
Cc1ccc(NC(=O)c2oc3ccc(S(=O)(=O)N4CCCCC4)cc3c2C)cc1C -24.2%
